In all, about 140,000 compounds went through this assay and about 240 (0.17%) were called active. Inconclusive means that the source gave no clear call. Such entries were picked first, then a sample of the others. Calls come from the whole dose curve; as a rule, active = well fitted inhibition curve with a large enough effect; inconclusive = small, poorly fitted or top-dose-only effect; inactive = no such curve, though single readings can be large or run the other way. Where the call is inconclusive, the potency comes from a doubtful curve fit.
assay: Primary qHTS assay for inhibitors of alpha-synuclein gene (SNCA) expression; settings: HEK-293 SNCA-luciferase knock-in, luminescence, 24 h; series mostly up to 57.2 µM; note: nearly all actives have a fitted effect of over 45% in size
Potency is the fitted concentration of half-maximal effect; tags give direction and shape of the fitted curve.

Potency, inconclusive:
COc1ccc(CCNC(=O)c2ccc3oc(-c4ccnc(Cl)c4)nc3c2)cc1 39.8 µM [inhibitor, single point]
Cn1c2c(c(=O)n(C)c1=O)C(c1cccc(O)c1)CC(=O)N2 (configuration not stated) 6.31 µM [inhibitor, single point]
CCc1ccc(-n2c(SCc3nc(-c4cc(OC)ccc4OC)no3)nnc2-c2ccccc2)cc1 39.8 µM [inhibitor, single point]
CN1CCCC2(C1)CN(Cc1cccnc1)c1ccc(C(=O)NCC3CCCCC3)cc12 (configuration not stated) 3.98 µM [inhibitor, partial curve, poor fit]
COc1ccc(OC2CN(CC3CCCCC3)C2)cc1 12.6 µM [inhibitor, single point]
CC(=O)N1CCC(c2nnc3n2C(C(=O)Nc2ccc(F)cc2)CC3)CC1 (configuration not stated) 56.2 µM [inhibitor, single point]
COCCNC(=O)[C@H]1C[C@H](Oc2cccnc2)CN1C(=O)Nc1cccc(F)c1 28.2 µM [inhibitor, single point]
O=C(NCc1cccc(C(F)(F)F)c1)c1nc2sccn2c1-c1ccc(C(F)(F)F)cc1 39.8 µM [inhibitor, single point]
CC1(C)[C@H](Cc2cc(CN3CCOCC3)on2)C[C@@H]1NC(=O)c1ccnc(Cl)c1 8.91 µM [inhibitor, full curve, poor fit]
Cc1ccc(S(=O)(=O)N2CCC(n3cnnc3C3CC3)CC2)cc1Cl 28.2 µM [inhibitor, single point]
Cc1ccc(C)c(NC(=O)Cn2nc3c(cc2=O)CCCCC3)c1 6.31 µM [inhibitor, single point]
O=C(C1COc2ccccc2O1)N1CCc2nc3cc(-c4ccccc4)[nH]n3c(=O)c2C1 (configuration not stated) 39.8 µM [inhibitor, single point]
Cc1ccccc1-n1cc(-c2ccnc(NC(C)Cc3ccncc3)n2)cn1 (configuration not stated) 39.8 µM [inhibitor, single point]
O=C(Cc1c[nH]c2ncc(-c3ccccc3)cc12)NCc1cnccn1 56.2 µM [inhibitor, single point]
Cc1noc(-c2cccc(OC3CN(C(=O)Nc4ccccc4)C3)c2)n1 7.08 µM [inhibitor, single point]
Cc1cccc(NC(=O)C2CCN(S(=O)(=O)c3ccc4[nH]c5c(c4c3)CCCCC5)CC2)c1 25.1 µM [inhibitor, single point]
COC(=O)[C@@H]1Cc2c([nH]c3ccccc23)[C@H]2C[C@@H](NCc3cccnc3)C[C@@H](c3ccccc3)N21 3.98 µM [inhibitor, single point]
Cc1cc(C)cc(NC(=O)Cn2cc(C(=O)c3ccncc3)c(=O)c3cc(C)c(C)cc32)c1 39.8 µM [inhibitor, single point]
CC(C)CCC(=O)N[C@@H]1CN(Cc2ccncc2)C[C@H]1CN(C)C 31.6 µM [inhibitor, single point]
COc1cccc(NC(=O)CCSc2nc(-c3ccco3)cc(C(F)(F)F)n2)c1 2.82 µM [inhibitor, partial curve, poor fit]
CC(=O)N1CCN(C(=O)c2ccc3c(c2)NC(C)(CNc2ccccc2)CO3)CC1 (configuration not stated) 56.2 µM [inhibitor, single point]
COc1ccc(OC)c(CNC(=O)c2cc(S(=O)(=O)N3CCC(C)CC3)cn2C)c1 28.2 µM [inhibitor, single point]
COCCOCc1nc(C2CCCCN2C(=O)Nc2ccccc2)no1 (configuration not stated) 35.5 µM [inhibitor, single point]
CN(Cc1cccc(C(F)(F)F)c1)C(=O)C(C)(C)C 22.4 µM [inhibitor, single point]
COc1cccc(CC2(CO)CCCN(c3nnnn3-c3ccccc3)C2)c1 (configuration not stated) 3.55 µM [inhibitor, single point]
CCC(C(=O)N1CCN(c2ccccc2)C(=O)C1)N1Cc2ccccc2C1=O (configuration not stated) 20 µM [inhibitor, partial curve, poor fit]
Cc1cc2cc(CCNS(=O)(=O)c3ccc(Br)cc3)c(=O)[nH]c2cc1C 39.8 µM [inhibitor, single point]
O=C(CCS(=O)(=O)c1nc(-c2cccs2)cc(C(F)(F)F)n1)Nc1ccc(Br)cc1 39.8 µM [inhibitor, single point]
CN1Cc2ccc(NCc3ccccc3)nc2C(C)(C(=O)Nc2ccccc2)C1 (configuration not stated) 28.2 µM [inhibitor, single point]
COCCNC(=O)CCCN1C(=O)COc2ccc(C(=O)COc3ccc(C(C)(C)C)cc3)cc21 28.2 µM [inhibitor, single point]

Potency, inactive:
COc1nc2nc(CC3CC3)n(C)c2cc1-c1ccnc(C)c1
O=C1c2cnc(-c3ccccc3)nc2OCCN1c1cccc(C(F)(F)F)c1
Cn1ncc2c(C(=O)NCC(F)(F)F)cc(C(C)(C)C)nc21
COc1ccccc1Nc1ccnc(N2CCC(N[S+](=O)([O-])c3ccc(C)cc3)CC2)n1
O=C(Cc1c[nH]c2ncc(-c3ccc4c(c3)OCO4)cc12)N1CCOCC1
C[C@@H](NC(=O)c1ccc(Cl)cc1)c1c(-c2ccc(F)cc2)noc1C(=O)O
CCc1ccc(CN2CCC(CNC(=O)c3ccc(C)nc3)C2)nc1 (configuration not stated)
CCCNC(=O)C1CCCCc2nnc(-c3ccccc3)n21 (configuration not stated)
CCC(=O)N1CCc2c(C(=O)NCc3ccc(OC(C)C)cc3)cccc21
CC(C)OCCCNC(=O)Cn1nc2c(cc1=O)CCCCC2
CC(C)CNC(=O)N1CCCC(c2noc(COc3ccccc3)n2)C1 (configuration not stated)
O=C(c1cccs1)N1CCCN(c2cc(-c3ccc(F)cc3)[nH]n2)CC1

— PubChem BioAssay AID1671194 (National Center for Advancing Translational Sciences (NCATS), 2021)
